Results are given in words; binding and its absence hold for the method and conditions named. In cells and extracts the contact can be indirect. Some results given as binding are weak or reduced against the parent protein; the word gives no strength. Each block holds one molecule with its values, some of them ahead of it.
Tests used:
HA-AKT2 = HA-AKT2 (UniProt P31751); experiment: co-IP; HEK293 cells transiently transfected with HA-AKT2 and FLAG-Gβ1γ2 or Myc-WDR26, or both; lysates immunoprecipitated with anti-HA
[1] = target: FLAG-WDR1-122 (in HEK293) (human) (UniProt Q9H7D7); experiment: co-IP; FLAG-GFP, FLAG-WDR26 or its deletion mutants transiently co-expressed with HA-AKT2 in HEK293 cells; immunoprecipitation with anti-FLAG
[2] = target: FLAG-WDR1-231 (in HEK293) (human) (UniProt Q9H7D7); experiment: as above
[3] = target: FLAG-WDR123-661 (in HEK293) (human) (UniProt Q9H7D7); experiment: as above
[4] = target: FLAG-WDR232-661 (in HEK293) (human) (UniProt Q9H7D7); experiment: as above
[5] = target: FLAG-WDR295-661 (in HEK293) (human) (UniProt Q9H7D7); experiment: as above
[6] = target: FLAG-tagged WDR26 (human) (UniProt Q9H7D7); experiment: co-IP; MDA-MB231 cells transduced with adenovirus for FLAG-GFP or FLAG-WDR26, serum-starved overnight, unstimulated or stimulated with LPA (10 μM) for the indicated time; lysed in modified RIPA buffer (without SDS); immunoprecipitation with anti-FLAG, endogenous proteins detected by blot

Amino acid sequences for entries named in this document (tags omitted). A change or cut given only in a name is not applied to a line headed by its entry. Residues count along the entry.
UniProt P31751: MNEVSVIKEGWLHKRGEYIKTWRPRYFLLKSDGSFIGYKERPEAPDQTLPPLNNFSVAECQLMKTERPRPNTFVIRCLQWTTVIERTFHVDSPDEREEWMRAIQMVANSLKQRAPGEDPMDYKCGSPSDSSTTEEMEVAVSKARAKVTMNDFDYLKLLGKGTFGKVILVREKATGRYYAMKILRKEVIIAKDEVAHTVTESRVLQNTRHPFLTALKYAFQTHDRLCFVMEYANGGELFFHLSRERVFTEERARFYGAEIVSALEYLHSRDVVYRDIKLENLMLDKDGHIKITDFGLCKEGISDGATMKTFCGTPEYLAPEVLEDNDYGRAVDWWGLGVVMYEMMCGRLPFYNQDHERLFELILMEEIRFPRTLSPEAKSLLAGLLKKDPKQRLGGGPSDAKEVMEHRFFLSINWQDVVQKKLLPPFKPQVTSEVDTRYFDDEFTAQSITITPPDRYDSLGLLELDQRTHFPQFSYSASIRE
UniProt Q9H7D7: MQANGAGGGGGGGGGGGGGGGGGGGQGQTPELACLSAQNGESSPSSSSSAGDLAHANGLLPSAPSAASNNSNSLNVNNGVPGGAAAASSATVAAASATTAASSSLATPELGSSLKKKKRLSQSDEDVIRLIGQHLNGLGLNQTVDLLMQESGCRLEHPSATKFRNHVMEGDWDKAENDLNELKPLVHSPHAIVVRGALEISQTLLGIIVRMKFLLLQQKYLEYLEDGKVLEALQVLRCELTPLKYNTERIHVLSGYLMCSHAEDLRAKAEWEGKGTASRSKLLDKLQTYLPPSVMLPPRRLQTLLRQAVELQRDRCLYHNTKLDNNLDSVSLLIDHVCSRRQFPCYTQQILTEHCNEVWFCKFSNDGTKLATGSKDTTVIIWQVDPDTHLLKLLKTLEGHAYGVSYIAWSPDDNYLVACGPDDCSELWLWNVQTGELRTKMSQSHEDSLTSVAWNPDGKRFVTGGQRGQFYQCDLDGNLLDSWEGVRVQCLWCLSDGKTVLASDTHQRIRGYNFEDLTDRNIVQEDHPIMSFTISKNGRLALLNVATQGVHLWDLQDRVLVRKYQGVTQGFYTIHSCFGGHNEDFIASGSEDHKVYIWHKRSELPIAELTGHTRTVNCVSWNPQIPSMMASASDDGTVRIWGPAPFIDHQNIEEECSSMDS
FLAG-WDR1-231 (in HEK293): residues 1-231 of Q9H7D7
FLAG-WDR1-122 (in HEK293): residues 1-122 of Q9H7D7
FLAG-WDR123-661 (in HEK293): residues 123-661 of Q9H7D7
FLAG-WDR232-661 (in HEK293): residues 232-661 of Q9H7D7
FLAG-WDR295-661 (in HEK293): residues 295-661 of Q9H7D7
UniProt P42338: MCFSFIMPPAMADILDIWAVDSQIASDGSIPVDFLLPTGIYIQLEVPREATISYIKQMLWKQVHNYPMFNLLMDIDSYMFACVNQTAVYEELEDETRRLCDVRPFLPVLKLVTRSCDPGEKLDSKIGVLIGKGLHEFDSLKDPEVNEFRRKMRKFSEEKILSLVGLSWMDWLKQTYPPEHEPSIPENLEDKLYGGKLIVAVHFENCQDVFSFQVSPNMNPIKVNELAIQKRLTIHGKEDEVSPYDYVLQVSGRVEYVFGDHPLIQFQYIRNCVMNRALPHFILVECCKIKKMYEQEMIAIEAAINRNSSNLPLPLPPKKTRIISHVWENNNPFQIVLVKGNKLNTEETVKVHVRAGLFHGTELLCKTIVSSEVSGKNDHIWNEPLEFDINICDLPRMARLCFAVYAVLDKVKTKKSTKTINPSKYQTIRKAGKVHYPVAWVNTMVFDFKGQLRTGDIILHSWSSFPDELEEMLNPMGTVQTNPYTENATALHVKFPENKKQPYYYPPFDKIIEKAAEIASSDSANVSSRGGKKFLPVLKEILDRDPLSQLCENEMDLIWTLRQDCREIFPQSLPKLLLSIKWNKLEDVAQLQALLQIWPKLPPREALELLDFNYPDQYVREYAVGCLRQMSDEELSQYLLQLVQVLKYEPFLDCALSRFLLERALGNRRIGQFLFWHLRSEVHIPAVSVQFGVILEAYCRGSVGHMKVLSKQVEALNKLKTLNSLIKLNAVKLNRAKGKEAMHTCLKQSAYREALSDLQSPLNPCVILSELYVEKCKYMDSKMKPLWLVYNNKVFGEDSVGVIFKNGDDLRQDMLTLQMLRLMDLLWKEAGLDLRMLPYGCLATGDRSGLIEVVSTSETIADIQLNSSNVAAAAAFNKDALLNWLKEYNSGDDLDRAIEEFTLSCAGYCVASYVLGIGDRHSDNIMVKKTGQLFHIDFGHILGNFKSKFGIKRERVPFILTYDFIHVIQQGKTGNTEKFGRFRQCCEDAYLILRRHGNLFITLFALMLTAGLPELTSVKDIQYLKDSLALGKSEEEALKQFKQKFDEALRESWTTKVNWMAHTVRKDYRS
UniProt P31749: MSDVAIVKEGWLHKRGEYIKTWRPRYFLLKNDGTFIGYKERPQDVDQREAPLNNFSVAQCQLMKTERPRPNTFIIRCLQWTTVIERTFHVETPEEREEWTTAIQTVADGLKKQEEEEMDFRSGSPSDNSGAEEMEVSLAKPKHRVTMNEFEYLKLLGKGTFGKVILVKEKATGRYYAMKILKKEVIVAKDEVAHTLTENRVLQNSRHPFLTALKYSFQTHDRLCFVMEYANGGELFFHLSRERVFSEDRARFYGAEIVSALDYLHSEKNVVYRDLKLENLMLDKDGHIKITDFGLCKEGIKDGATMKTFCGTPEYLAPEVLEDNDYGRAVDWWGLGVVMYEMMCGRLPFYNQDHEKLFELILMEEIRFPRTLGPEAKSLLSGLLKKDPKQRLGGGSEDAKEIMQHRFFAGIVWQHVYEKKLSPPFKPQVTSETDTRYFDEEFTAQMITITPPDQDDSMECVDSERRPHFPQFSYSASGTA

Molecule: HA-AKT2 (from UniProt P31751 1-481) (enzyme)
- binding [1]: no binding
- binding [2]: binds
- binding [3]: binds
- binding [4]: binds
- binding [5]: binds

Molecule: PI3K subunit p110β (endogenous) (from UniProt P42338 1-1070) (enzyme)
- binding [6]: binds

Molecule: AKT2 (endogenous) (from UniProt P31751 1-481) (enzyme)
- binding [6]: binds

B1: p110δ (endogenous) (enzyme, UniProt O00329 1-1044)
chain: MPPGVDCPMEFWTKEENQSVVVDFLLPTGVYLNFPVSRNANLSTIKQLLWHRAQYEPLFHMLSGPEAYVFTCINQTAEQQELEDEQRRLCDVQPFLPVLRLVAREGDRVKKLINSQISLLIGKGLHEFDSLCDPEVNDFRAKMCQFCEEAAARRQQLGWEAWLQYSFPLQLEPSAQTWGPGTLRLPNRALLVNVKFEGSEESFTFQVSTKDVPLALMACALRKKATVFRQPLVEQPEDYTLQVNGRHEYLYGSYPLCQFQYICSCLHSGLTPHLTMVHSSSILAMRDEQSNPAPQVQKPRAKPPPIPAKKPSSVSLWSLEQPFRIELIQGSKVNADERMKLVVQAGLFHGNEMLCKTVSSSEVSVCSEPVWKQRLEFDINICDLPRMARLCFALYAVIEKAKKARSTKKKSKKADCPIAWANLMLFDYKDQLKTGERCLYMWPSVPDEKGELLNPTGTVRSNPNTDSAAALLICLPEVAPHPVYYPALEKILELGRHSECVHVTEEEQLQLREILERRGSGELYEHEKDLVWKLRHEVQEHFPEALARLLLVTKWNKHEDVAQMLYLLCSWPELPVLSALELLDFSFPDCHVGSFAIKSLRKLTDDELFQYLLQLVQVLKYESYLDCELTKFLLDRALANRKIGHFLFWHLRSEMHVPSVALRFGLILEAYCRGSTHHMKVLMKQGEALSKLKALNDFVKLSSQKTPKPQTKELMHLCMRQEAYLEALSHLQSPLDPSTLLAEVCVEQCTFMDSKMKPLWIMYSNEEAGSGGSVGIIFKNGDDLRQDMLTLQMIQLMDVLWKQEGLDLRMTPYGCLPTGDRTGLIEVVLRSDTIANIQLNKSNMAATAAFNKDALLNWLKSKNPGEALDRAIEEFTLSCAGYCVATYVLGIGDRHSDNIMIRESGQLFHIDFGHFLGNFKTKFGINRERVPFILTYDFVHVIQQGKTNNSEKFERFRGYCERAYTILRRHGLLFLHLFALMRAAGLPELSCSKDIQYLKDSLALGKTEEEALKHFRVKFNEALRESWKTKVNWLAHNVSKDNRQ
- binding [6]: no binding

Now from value to molecule:

- binding (HA-AKT2): binds
Molecule: Myc-WDR26 (in HEK293) (from UniProt Q9H7D7 1-661)

- binding [6]: no binding
Molecule: AKT1 (endogenous) (from UniProt P31749 1-480) (enzyme)

From article PMC4951255
